Source: the RNAGym collection of RNA variant scans (doi:10.7554/elife.90254)
Read counts are not given, so values of variants with three or more changes are uncertain.

B1: LINE1-mini (parent)
chain: GGCAGAGCUCAACACAGCGUGGCAAAGUGGCUGUGGCUAGACUGCC

Variants of: B1
Assay: self-cleavage, relative activity (ratio to wild type); higher = more cleavage; in vitro, sequencing; the parent is a self-cleaving ribozyme

Variant | self-cleavage
GGGAGAGCUCAACACAGCGUGGCAAAAUGGCUGUUGCUAGACUGCC [C3G G27A G35U] | 0.11
GGUAGAGCUCGACACAGCGAGGCAAAGUGGCUGUGGCUAGACUGCG [C3U A11G U20A C46G] | 0.03
GGGAGAGCUCAACACAGCGUGGCAAACUGCCUGUGGCUAGACUGCC [C3G G27C G30C] | 1.31
GGUAGGGCUUAACUCAGCGUGGCAAAGUGGCUGUGGCUAGACUUGC [C3U A6G C10U A14U G44U C45G] | 0.01
GGGAGAGCUCAACACAGCGCGGCAAAGUGGCUGUGGCGAGACUGCC [C3G U20C U38G] | 0.03
GGGAGAGCUCAACACAGCGUGGCAAAGUCGCUGUGGCUAUACUGCC [C3G G29C G40U] | 0.05
GGUAGGGCUCAUCACAGCGUGGCUAAGUUGCUGUGGCUAGAGUGCU [C3U A6G A12U A24U G29U C42G C46U] | 0.03
GGUAGAGCUCCACACAGCGUGGCAAAGUGGCUGUGGCUAAUCGGAC [C3U A11C G40A A41U U43G C45A] | 0.01
GGGAGAGCUCAACACAGCGUAGCAAAUCGGCUUUGGCUAGACUGGG [C3G G21A G27U U28C G33U C45G C46G] | 0.02
GGGAGAGCUCAACACAGCGGGGCAGAGUGGCUGUGGCUAGACUGCC [C3G U20G A25G] | 0.13
GGUUGCGCUCAACACAGGGUGGCAUAGUGGCUGUGGCCAGACUGCU [C3U A4U A6C C18G A25U U38C C46U] | 0.07
GGUAGGGCUCAACACAGCCUGGCAAAGUGGUUGUUGCUAGACUGCC [C3U A6G G19C C31U G35U] | 0.04
GGGAGAGCUCAACACAGCAUGGCAAAGUGGCUGUGGCUAGACUCCC [C3G G19A G44C] | 2.53
GGGAGAGCUCAACACAGCGUGGCAAAGUGGCUGUGGCUAGACUCAC [C3G G44C C45A] | 0.23
GGUUGAGCUCAAAACAGCGUGGCAAAGUGGCUGUGUCUAGACUGCC [C3U A4U C13A G36U] | 0.12
GGUAGAGCUCAACCCAGCGUGGCAAAGUGGCUGUGGCUGGACUGCC [C3U A14C A39G] | 0.02
GGUAGAGCUCAUCACAGCGUGGCAUUGUGGCUGUGGCUAGACUGCC [C3U A12U A25U A26U] | 0.03
GGGAGAGCUCAACACAGCGUGCCAAAGUGGCUGAGGAUAGACUGCC [C3G G22C U34A C37A] | 0.1
GGGAGAGCGCAACACAGCGCCGCAACGUGGCUGUGGCUAGACUGCC [C3G U9G U20C G21C A26C] | 0.04

Variant | self-cleavage
GGGAGAGCAAAACACAGCGUGGCUAAGUGGCUGUGGCUAGACUGCC [C3G U9A C10A A24U] | 0.03
GGUCGGGCUCAACACAGCGUGGCAAAGUGGCUGUGUCUAGACUGCC [C3U A4C A6G G36U] | 0.17
GGGAGAGCGCAACACAGCGUUGCAAAGUGGCUGUGGCUAGACUGCC [C3G U9G G21U] | 0.1
GGUAGCGCUCAACACAGCGUGGCAAAGUUGCUGUGGCUAGACUUCC [C3U A6C G29U G44U] | 0.08
GGUAGAGCUCAACCCAGCGAGGCAAAGUGUCUGUGGCUAGACUGCG [C3U A14C U20A G30U C46G] | 0.06
GGGAGAGCUCAACACAGCCUCGCAAAGUGGUUGUGGCUAGACUGCC [C3G G19C G21C C31U] | 0.04
GGGAGAGCACAACACAGCGUGGCAAACUGGCUGUGGCUAGACUGCC [C3G U9A G27C] | 0.13
GGUAGUGCUCAACACGGCGUGGCAAAGUGGCUGUGGCUAGACUCCC [C3U A6U A16G G44C] | 0.08
GGUAGCGGUCAACACAGCGUGGCAAAUUGGCUGUGGCUAGACUGCC [C3U A6C C8G G27U] | 0.05
GGGAGAGCUCAACACAGCGAGGCAAAGAGGCUGUGGCUAGCCUGCC [C3G U20A U28A A41C] | 0.09
GGGAGAGCUCAACACAGCGUGGCAAAGUGGCUGUUGAUAGACUGCC [C3G G35U C37A] | 0.14
GGGAGAGCACAACACAGCGUGGCAUAGUGGCUGUGGGUAGACUCCU [C3G U9A A25U C37G G44C C46U] | 0.02
GGUAGAGCUCGACACAGCGUGGCAAUCUGGUUGUGGCUAGACUGUC [C3U A11G A26U G27C C31U C45U] | 0
GGUCGAGCUCUACACAGCGUUACAAAGAGGCUGUAGCUAGACUGCC [C3U A4C A11U G21U G22A U28A G35A] | 0.02
GGGAGAGCUCAACACAGCGUAGCAAAGUGGAUGUGGCUAGCCUGCC [C3G G21A C31A A41C] | 0.04
GGGAGAGCACAAAACAGCGUGGCAAAGUGGCUGUGGCUAGACUGCC [C3G U9A C13A] | 0.43
GGGAGAGCUCAACACAGCUUCGCAAAGUGGCUGUGGCUAGUCUGCC [C3G G19U G21C A41U] | 0.09
GGGAGAGCUCAACACAGCGUGCCAGACUGGCUGUGGCUAGACUGCC [C3G G22C A25G G27C] | 0.09
GGUUGAGCUCAACACAGCGUGGCAAAGUGGCUGGGGCUAGACUGCC [C3U A4U U34G] | 0.06

Variant | self-cleavage
GGUAGCGCUCAACACAGCGUCGCAAAGUGGCUGUCGAUAGCCUGCC [C3U A6C G21C G35C C37A A41C] | 0.01
GGGAGAGCUCAACACAGCGUGACCAAGUGACUGUGGCUACACUGCC [C3G G22A A24C G30A G40C] | 0.09
GGUAGGGCUCAACAUAGCGUGGCAAAGUGGGUGUGGCUAGACUGCC [C3U A6G C15U C31G] | 0.09
GGUAGAGCUCAUCACAGCGUGGCAACGUGGCUGUGAAUAGACGGCC [C3U A12U A26C G36A C37A U43G] | 0.01
GGGAGAGCUCAACACAGCGUGGCAAAGUGACUGUGGCUAGACUGCA [C3G G30A C46A] | 0.11
GGUCGAGCUCAACACAGCGUGGCAAAAUGGCUGUGGCUAGACUGCC [C3U A4C G27A] | 0.06
GGUUGAGCUAAGCACUGCAUGGCAAAGUGGCUUUGGCUAAACUGCC [C3U A4U C10A A12G A16U G19A G33U G40A] | 0.01
GGUGGAGCUCAACCCAGCUUGUCAACGUGGCUGUGGCUAGACUGCC [C3U A4G A14C G19U G22U A26C] | 0.02
GGGAGAGCACCAUACAGCGUGGCAAAGUGUUUGUGGCUAGACUGCC [C3G U9A A11C C13U G30U C31U] | 0.02
GGUAGAGCUCAUCACAGCGUGUCAAAGUGGAUAUGGCUAGACUGCC [C3U A12U G22U C31A G33A] | 1.21
GGUAGGGCUCAUCACAGCGAGGUAAAGUGGCUGUGGCUGGACUGCA [C3U A6G A12U U20A C23U A39G C46A] | 0.1
GGGAGAGCUCAACACAGCGUGGCAAAGCCGCUGAGUCGAGACUGCC [C3G U28C G29C U34A G36U U38G] | 0.06
GGGAGAGCUCAACACAGCCUGACAAAGUGGCUGUGGCUUGAGUCCC [C3G G19C G22A A39U C42G G44C] | 0
GGUAGAGCUCCACACAGCGGGGCAAAGUGGCUGUGGCUAGACUGCC [C3U A11C U20G] | 0.02
GGUAGGGCUCAACACAGCCUGGCAAAGUGACUGUGGCUAGACUGCC [C3U A6G G19C G30A] | 0.1
GGUCGAGCUCAACACAGCGUGGCAAAGUGUCUGUGGCUAGACUGCC [C3U A4C G30U] | 0.13
GGUCGAGCUCAACACAGCGUGGCAAAGUGGCUUUGGCUAGACUGCC [C3U A4C G33U] | 0.04
GGUAGAGCUCACCAAAGCGUGGCAAAGUGGCUGUGGCUAGACUGCC [C3U A12C C15A] | 0.03
